From the supplement of paper PMC10369915 come the findings set out here.

This is one part of the list. Cut-off read from the data, not from the text of the source: active = 3.2 or more and inactive = the rest. The signal is at background level for most entries.
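Note: displayed peptides selected on beads carrying the immobilized SH2 domain, with library peptides lacking any tyrosine serving as negative controls.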

The target in one assay is SHP2 C-SH2 domain E139D. The assay can be described thus: enrichment score (SH2-bound / input frequency) (ratio); bacterial display of known human phosphotyrosine sites (pTyr-Var adds point mutants) read by sequencing; higher = stronger binding; tyrosines were phosphorylated by kinases first. Conditions: peptide library: pTyr-Var.
As for CTTIHYNFMSN [TP53_Y234_C238S_YF], the enrichment score was inactive: 1.49.

Turning to CTTIHYNFMCH [TP53_Y234_N239H_YF], the enrichment score is active: 4.07.

With CITIHYNYMCN [TP53_Y234_T230I], the enrichment score is active: 4.15.

Consider SVVVPHEPPEV [TP53_Y220_Y220H], for which the enrichment score is inactive: 0.789.

For CTTIHYNNMCN [TP53_Y234_Y236N], the enrichment score is inactive: 2.01.

In the case of PPDGEYFTLQI [TP53_Y327_L323P], the enrichment score was inactive: 0.547.

As for PLDVEYFTLQI [TP53_Y327_G325V], the enrichment score was inactive: 0.585.

As to CTTIHYNYRCN [TP53_Y234_M237R], the enrichment score was active: 3.43.

PLDEEYFTLQI [TP53_Y327_G325E]: the enrichment score is inactive: 1.18.

On to CTTIHYDYMCN [TP53_Y234_N235D], for which the enrichment score was active: 3.79.

Regarding PLDGEYFTLQI [TP53_Y327], the enrichment score is inactive: 1.19.

Regarding LEDEVCAQKMK [TPM2_Y261_Y261C], the enrichment score is inactive: 1.07.

Turning to CTTIHCNFMCN [TP53_Y234_Y234C_YF], the enrichment score was inactive: 1.79.

Regarding SVVVPFEPPEV [TP53_Y220_Y220F], the enrichment score is inactive: 0.787.

Regarding RTTIHYNFMCN [TP53_Y234_C229R_YF], the enrichment score was inactive: 1.03.

As to CTTIQYNYMCN [TP53_Y234_H233Q], the enrichment score was active: 4.42.

For CTTIHYIYMCN [TP53_Y234_N235I], the enrichment score was inactive: 1.54.

Turning to PLSGEYFTLQI [TP53_Y327_D324S], the enrichment score was inactive: 0.825.

For the molecule CSTIHYNYMCN [TP53_Y234_T230S], the enrichment score is active: 4.14.

The next assay deals with SHP2 C-SH2 domain wild-type. Described as above. Conditions: peptide library: pTyr-Var.
With CTTIHYNFMSN [TP53_Y234_C238S_YF], the enrichment score was inactive: 1.62.

With CTTIHYNFMCH [TP53_Y234_N239H_YF], the enrichment score was active: 3.82.

As to CITIHYNYMCN [TP53_Y234_T230I], the enrichment score is active: 3.72.

Regarding SVVVPHEPPEV [TP53_Y220_Y220H], the enrichment score is inactive: 0.802.

As for CTTIHYNNMCN [TP53_Y234_Y236N], the enrichment score is inactive: 1.85.

As to PPDGEYFTLQI [TP53_Y327_L323P], the enrichment score was inactive: 0.578.

With PLDVEYFTLQI [TP53_Y327_G325V], the enrichment score was inactive: 0.768.

As for CTTIHYNYRCN [TP53_Y234_M237R], the enrichment score is active: 3.53.

With PLDEEYFTLQI [TP53_Y327_G325E], the enrichment score is inactive: 0.895.

Take CTTIHYDYMCN [TP53_Y234_N235D]: the enrichment score is active: 3.38.

For PLDGEYFTLQI [TP53_Y327], the enrichment score is inactive: 1.41.

For LEDEVCAQKMK [TPM2_Y261_Y261C], the enrichment score was inactive: 0.533.

With CTTIHCNFMCN [TP53_Y234_Y234C_YF], the enrichment score was inactive: 1.84.

Turning to SVVVPFEPPEV [TP53_Y220_Y220F], the enrichment score was inactive: 0.799.

As to RTTIHYNFMCN [TP53_Y234_C229R_YF], the enrichment score was inactive: 1.16.

CTTIQYNYMCN [TP53_Y234_H233Q]: the enrichment score is active: 3.57.

As to CTTIHYIYMCN [TP53_Y234_N235I], the enrichment score is inactive: 1.66.

Consider PLSGEYFTLQI [TP53_Y327_D324S], for which the enrichment score is inactive: 1.17.

Consider CSTIHYNYMCN [TP53_Y234_T230S], for which the enrichment score was active: 5.74.

The next assay addresses SHP2 N-SH2 domain L43F. The assay is described as above. Conditions: peptide library: pTyr-Var.
On to CTTIHYNFMSN [TP53_Y234_C238S_YF], for which the enrichment score is inactive: 1.56.

On to CTTIHYNFMCH [TP53_Y234_N239H_YF], for which the enrichment score was active: 3.71.

Consider CITIHYNYMCN [TP53_Y234_T230I], for which the enrichment score was active: 3.75.

For SVVVPHEPPEV [TP53_Y220_Y220H], the enrichment score was inactive: 0.843.

For the molecule CTTIHYNNMCN [TP53_Y234_Y236N], the enrichment score was inactive: 1.75.

In the case of PPDGEYFTLQI [TP53_Y327_L323P], the enrichment score is inactive: 0.815.

With PLDVEYFTLQI [TP53_Y327_G325V], the enrichment score was inactive: 0.586.

For CTTIHYNYRCN [TP53_Y234_M237R], the enrichment score was inactive: 3.07.

As for PLDEEYFTLQI [TP53_Y327_G325E], the enrichment score was inactive: 0.887.

In the case of CTTIHYDYMCN [TP53_Y234_N235D], the enrichment score was active: 4.34.

Take PLDGEYFTLQI [TP53_Y327]: the enrichment score is inactive: 0.907.

On to LEDEVCAQKMK [TPM2_Y261_Y261C], for which the enrichment score is inactive: 0.89.

Turning to CTTIHCNFMCN [TP53_Y234_Y234C_YF], the enrichment score was inactive: 1.82.

With SVVVPFEPPEV [TP53_Y220_Y220F], the enrichment score is inactive: 0.824.

As to RTTIHYNFMCN [TP53_Y234_C229R_YF], the enrichment score was inactive: 1.06.

Take CTTIQYNYMCN [TP53_Y234_H233Q]: the enrichment score is active: 4.02.

For the molecule CTTIHYIYMCN [TP53_Y234_N235I], the enrichment score was inactive: 1.54.

Regarding PLSGEYFTLQI [TP53_Y327_D324S], the enrichment score is inactive: 1.23.

On to CSTIHYNYMCN [TP53_Y234_T230S], for which the enrichment score is inactive: 2.92.

For another assay, the target named is SHP2 N-SH2 domain T42A. Described as above. Particulars: peptide library: pTyr-Var.
As to CTTIHYNFMSN [TP53_Y234_C238S_YF], the enrichment score was inactive: 1.26.

On to CTTIHYNFMCH [TP53_Y234_N239H_YF], for which the enrichment score was inactive: 3.03.

For the molecule CITIHYNYMCN [TP53_Y234_T230I], the enrichment score was inactive: 2.77.

SVVVPHEPPEV [TP53_Y220_Y220H]: the enrichment score is inactive: 0.602.

As to CTTIHYNNMCN [TP53_Y234_Y236N], the enrichment score was inactive: 1.95.

For PPDGEYFTLQI [TP53_Y327_L323P], the enrichment score is inactive: 0.602.

As to PLDVEYFTLQI [TP53_Y327_G325V], the enrichment score is inactive: 0.461.

CTTIHYNYRCN [TP53_Y234_M237R]: the enrichment score is inactive: 2.66.

On to PLDEEYFTLQI [TP53_Y327_G325E], for which the enrichment score is inactive: 0.805.

Turning to CTTIHYDYMCN [TP53_Y234_N235D], the enrichment score was inactive: 3.08.

Consider PLDGEYFTLQI [TP53_Y327], for which the enrichment score is inactive: 1.13.

With LEDEVCAQKMK [TPM2_Y261_Y261C], the enrichment score is inactive: 0.555.

Consider CTTIHCNFMCN [TP53_Y234_Y234C_YF], for which the enrichment score was inactive: 1.53.

SVVVPFEPPEV [TP53_Y220_Y220F]: the enrichment score was inactive: 0.696.

For RTTIHYNFMCN [TP53_Y234_C229R_YF], the enrichment score was inactive: 1.16.

Regarding CTTIQYNYMCN [TP53_Y234_H233Q], the enrichment score is active: 3.56.

CTTIHYIYMCN [TP53_Y234_N235I]: the enrichment score was inactive: 1.36.

For PLSGEYFTLQI [TP53_Y327_D324S], the enrichment score is inactive: 1.01.

With CSTIHYNYMCN [TP53_Y234_T230S], the enrichment score was inactive: 2.42.

The next assay addresses SHP2 N-SH2 domain T52S. The assay is described as above. Particulars: peptide library: pTyr-Var.
For CTTIHYNFMSN [TP53_Y234_C238S_YF], the enrichment score was inactive: 1.43.

As to CTTIHYNFMCH [TP53_Y234_N239H_YF], the enrichment score was active: 3.31.

CITIHYNYMCN [TP53_Y234_T230I]: the enrichment score is active: 3.4.

Turning to SVVVPHEPPEV [TP53_Y220_Y220H], the enrichment score is inactive: 0.843.

On to CTTIHYNNMCN [TP53_Y234_Y236N], for which the enrichment score was inactive: 1.78.

With PPDGEYFTLQI [TP53_Y327_L323P], the enrichment score was inactive: 0.653.

With PLDVEYFTLQI [TP53_Y327_G325V], the enrichment score is inactive: 0.537.

For CTTIHYNYRCN [TP53_Y234_M237R], the enrichment score is active: 3.48.

Consider PLDEEYFTLQI [TP53_Y327_G325E], for which the enrichment score was inactive: 0.897.

On to CTTIHYDYMCN [TP53_Y234_N235D], for which the enrichment score is active: 3.64.

On to PLDGEYFTLQI [TP53_Y327], for which the enrichment score is inactive: 1.19.

For LEDEVCAQKMK [TPM2_Y261_Y261C], the enrichment score was inactive: 0.452.

Take CTTIHCNFMCN [TP53_Y234_Y234C_YF]: the enrichment score was inactive: 1.79.

SVVVPFEPPEV [TP53_Y220_Y220F]: the enrichment score is inactive: 0.942.

With RTTIHYNFMCN [TP53_Y234_C229R_YF], the enrichment score is inactive: 1.24.

Take CTTIQYNYMCN [TP53_Y234_H233Q]: the enrichment score was active: 3.62.

For the molecule CTTIHYIYMCN [TP53_Y234_N235I], the enrichment score was inactive: 1.44.

On to PLSGEYFTLQI [TP53_Y327_D324S], for which the enrichment score was inactive: 1.04.

With CSTIHYNYMCN [TP53_Y234_T230S], the enrichment score is inactive: 3.02.

A further assay concerns the target SHP2 N-SH2 domain wild-type. The assay is described as above. Conditions: peptide library: pTyr-Var.
In the case of CTTIHYNFMSN [TP53_Y234_C238S_YF], the enrichment score is inactive: 1.46.

For the molecule CTTIHYNFMCH [TP53_Y234_N239H_YF], the enrichment score is active: 3.54.

With CITIHYNYMCN [TP53_Y234_T230I], the enrichment score is active: 3.77.

As for SVVVPHEPPEV [TP53_Y220_Y220H], the enrichment score is inactive: 0.847.

With CTTIHYNNMCN [TP53_Y234_Y236N], the enrichment score was inactive: 1.39.

PPDGEYFTLQI [TP53_Y327_L323P]: the enrichment score is inactive: 1.01.

With PLDVEYFTLQI [TP53_Y327_G325V], the enrichment score was inactive: 0.84.

As to CTTIHYNYRCN [TP53_Y234_M237R], the enrichment score is active: 3.36.

In the case of PLDEEYFTLQI [TP53_Y327_G325E], the enrichment score was inactive: 1.25.

As for CTTIHYDYMCN [TP53_Y234_N235D], the enrichment score is inactive: 2.57.

For PLDGEYFTLQI [TP53_Y327], the enrichment score was inactive: 1.71.

As to LEDEVCAQKMK [TPM2_Y261_Y261C], the enrichment score was inactive: 0.659.

For the molecule CTTIHCNFMCN [TP53_Y234_Y234C_YF], the enrichment score is inactive: 1.81.

Regarding SVVVPFEPPEV [TP53_Y220_Y220F], the enrichment score was inactive: 1.08.

As to RTTIHYNFMCN [TP53_Y234_C229R_YF], the enrichment score is inactive: 1.33.

Regarding CTTIQYNYMCN [TP53_Y234_H233Q], the enrichment score is active: 3.44.

For the molecule CTTIHYIYMCN [TP53_Y234_N235I], the enrichment score was inactive: 1.63.

As to PLSGEYFTLQI [TP53_Y327_D324S], the enrichment score was inactive: 1.39.

As for CSTIHYNYMCN [TP53_Y234_T230S], the enrichment score is inactive: 2.08.
